Screen size: about 150,000 compounds; about 540 (0.36%) showed an effect of 50% or more. This is one part of the list.

The experiment deals with Plasmodium falciparum. Nature of the experiment: Primary screen in NF54 nanoGlo assay, in single point, at 2uM, 72h; a lower Z score goes with more inhibition. It counts as functional, Erythrocyte. The following applies: timepoint 72 hour.
For the compound `CN1CCO[C@@H](CNCc2cccc3ccccc23)C1`, the “% Inhibition” value is reported as -9% and the Z score is reported as 1.25.
For `C#CCN(Cc1nc2cc(Br)cnc2[nH]1)Cc1ccco1`, in that order: 6% and -0.72.
For the compound `C[C@@H](CCc1ccccc1)NC(=O)C(=O)c1cccn1C`, the “% Inhibition” value turned out to be 3% and the Z score is listed as -0.49.
On the same counts, the results for `COc1cc(NC(=O)N(C)[C@@H](C)Cc2ccsc2)ncn1` are 6% and -0.77.
With `CC(C)(C)n1nnc(Cn2cc(Cl)ccc2=O)n1`, the “% Inhibition” value was -2% and the Z score is listed as 0.41.
As to `Cc1nc(N(C)C2CCCCC2)ncc1[C@H](C)NC(=O)c1ccoc1C`, the “% Inhibition” value is listed as -11% and the Z score is given as 0.95.
As to `Cc1ccccc1OCC(O)CN1CCc2sccc2C1C` (stereo unspecified), the “% Inhibition” value was -4% and the Z score is recorded as 0.75.
On to `O=C(CN(Cc1ccc(O)cc1)Cc1ccco1)NC1CCOCC1`, for which the “% Inhibition” value is reported as 0% and the Z score is -0.08.
With `CC1CCCC(OCC(=O)NCCC(=O)N2CCCCCC2)C1` (stereo unspecified), the “% Inhibition” value is given as -7% and the Z score was 1.16.
For `COc1ccc(NC(=O)Cn2nc3c4sc(N5CCCCC5)nc4ncn3c2=O)cc1`, in that order: -7% and 0.66.
For `Cc1ccc(Cc2ccccc2C(=O)N2CCN(C)C(=O)[C@@H]2C)cc1F`, in that order: -6% and 1.18.
Take `N#Cc1ccc(NCc2ccc(N3CCNC(=O)C3)cc2)nc1`: the “% Inhibition” value is -5% and the Z score is 0.51.
Regarding `Nc1nc(Cc2ccccc2)c(Br)c(=O)[nH]1`, the “% Inhibition” value worked out at 34% and the Z score was -0.46.
For `Cc1cc(N(C)C)ccc1NC(=O)CCN1C(=O)c2ccccc2N2C(=O)CC[C@]12C`, in that order: 2% and -0.43.
For `CC(C)c1cnc(CN[C@@H](C)c2ccc(S(C)(=O)=O)c(F)c2)o1`, in that order: -4% and 0.52.
Consider `N[C@@H](CC(=O)O)Cc1cc(F)c(F)cc1F`, for which the “% Inhibition” value is -7% and the Z score amounted to 1.34.
Take `CC[C@H](C)C(=O)Nc1ccc(C(C)(C)C#N)cc1`: the “% Inhibition” value was -8% and the Z score was 1.03.
With `Cc1cccc(-c2ocnc2C(=O)N2CC[C@H](CO)[C@H](NC(=O)c3ccccc3)C2)c1`, the “% Inhibition” value is listed as -13% and the Z score came to 1.71.
On the same counts, the results for `Cc1nnc(C(=O)NCc2ccc(N)nc2)s1` are 0% and 0.05.
For `CCNc1nc(C)c(C(=O)N(CC)[C@H]2COC[C@@H]2O)s1`, in that order: -7% and 0.97.
For `COc1ccc(F)cc1C(=O)CN1C(=O)CN(c2ccccc2)C1=O`, in that order: -12% and 1.68.
Regarding `Cc1noc(C)c1CC(=O)Nc1ccnc(C2CCCC2)n1`, the “% Inhibition” value is reported as -8% and the Z score is recorded as 0.74.
On the same counts, the results for `CC[C@H](C)n1cc(C(=O)NCc2cccc(C(F)(F)F)c2)c(=O)c(C(=O)N2CCCCCC2)c1` are -13% and 1.81.
For `COc1ccc(C[C@H](NC2CCOCC2)c2ccccc2)cc1OC`, in that order: -7% and 0.61.
In the case of `CCC/C=C/c1ccc(NS(C)(=O)=O)nc1`, the “% Inhibition” value was -7% and the Z score is recorded as 0.99.
For `O=C(C1CCCC1)N1CCc2onc(-c3ccccc3)c2C1`, in that order: -8% and 1.4.
For `O=C(NCC1CCc2ccccc2CC1)Nc1ccn(CCc2ccncc2)n1`, the “% Inhibition” value is recorded as -6% and the Z score stood at 0.92.
For `Cc1cccc(C)c1NC(=O)CN1C[C@H]2CCS(=O)(=O)[C@H]2C1`, the “% Inhibition” value was -7% and the Z score was determined as 0.78.
For `Cc1cnn(CCCN2C[C@@H]3CC[C@H]2CN(C(=O)c2ccccn2)C3)c1`, in that order: 0% and 0.
On to `COC(=O)CCC(=O)N1CCc2onc(-c3ccccc3F)c2C1`, for which the “% Inhibition” value is -22% and the Z score came to 1.9.
Turning to `CC(=O)N1CCN(C(=O)[C@H](C)NC(=O)c2cc3n(n2)CCCN(Cc2ccc(C)cc2)C3=O)CC1`, the “% Inhibition” value was -5% and the Z score is reported as 0.45.
For `COC1(C)CN(c2nc(C)ncc2C)C1`, in that order: -7% and 1.13.
On the same counts, the results for `CCC(C)[C@H](NC(=O)NCc1ccccc1)C(=O)O` (stereo partly specified) are -3% and 0.4.
For `Cc1ncc(C(=O)N2CCc3ccccc3C2)cn1`, in that order: -21% and 3.17.
`COC[C@@H]1CCCN1CC(=O)Nc1ccc(Cl)cc1F`: the “% Inhibition” value stood at 4% and the Z score is given as -0.77.
On the same counts, the results for `Cc1nn(C)c(C)c1CCC(=O)N1CCC2(CC1)[C@H](O)C[C@@H]2OCCO` are -3% and 0.38.
Take `O=C(NCCN1CCCCC1)Nc1ncn(C2CCCCC2)n1`: the “% Inhibition” value is reported as -7% and the Z score is recorded as 0.72.
On to `N#Cc1ccnc(N[C@H]2CCCCC23CCCC3)n1`, for which the “% Inhibition” value turned out to be 1% and the Z score was -0.12.
As to `CC1CN(Cc2ccccc2)CC(C)C1NC(=O)N1CCC(CO)CC1` (stereo unspecified), the “% Inhibition” value stood at 6% and the Z score is on record as -1.07.
On to `Cc1cc(-c2ccc(S(=O)(=O)NC3CCC(C)CC3)cc2)on1` (stereo unspecified), for which the “% Inhibition” value is listed as -9% and the Z score was 1.69.
On the same counts, the results for `O=C(CN1CCOC1=O)NCc1cc(COc2ccccc2)cs1` are -12% and 1.63.
`Cc1ccc(C)c(NC(=O)[C@H](C)N2CCC(NS(=O)(=O)c3cccs3)CC2)c1`: the “% Inhibition” value is -1% and the Z score is reported as 0.1.
For the compound `CN1CCCOc2cccc(c2)[C@@H]2N(C(=O)CCS(C)(=O)=O)CC[C@]23C(=O)N(CC1=O)c1ccccc13`, the “% Inhibition” value was -17% and the Z score was 1.91.

Broadly, the % Inhibition is the relative decrease from the control value, in per cent.

These data come from ChEMBL document CHEMBL4888484, “Replenishing the malaria drug discovery pipeline: Screening and hit evaluation of the MMV Hit Generation Library 1 (HGL1) against asexual blood stage Plasmodium falciparum ,using a nano luciferase reporter read-out” (2022).
